Experimental data taken from PubChem BioAssay AID2451 (National Center for Advancing Translational Sciences (NCATS), 2010).
Among all 290,000 compounds or so, about 2,100 (0.72%) were called active. This list was built around the results that the source calls inconclusive (neither active nor inactive); the mix of calls is not that of the screen. Calls come from the whole dose curve; as a rule, active = well fitted inhibition curve with a large enough effect; inconclusive = small, poorly fitted or top-dose-only effect, or effect the other way; inactive = flat fitted curve, though single readings scatter. A potency beside an inconclusive call is a rough fit, not a confirmed value.
% is set by controls: 0 for no effect and ±100 for the full control effect; potency is the fitted concentration of half-maximal effect; tags give direction and shape of the fitted curve.
Note: nearly all actives have a fitted effect of over 55% in size.

What follows are compounds tested against Fructose-bisphosphate aldolase (Giardia intestinalis (strain ATCC 50803 / WB clone C6)) (UniProt A8B2U2) (assay: qHTS Assay for Inhibitors of Fructose-1,6-bisphosphate Aldolase from Giardia Lamblia). Details: purified Giardia FBPA; activity, negative = inhibition: at 59.6 µM (top of the series) unless noted.
Chain of UniProt A8B2U2 (A8B2U2 whole entry, looked up): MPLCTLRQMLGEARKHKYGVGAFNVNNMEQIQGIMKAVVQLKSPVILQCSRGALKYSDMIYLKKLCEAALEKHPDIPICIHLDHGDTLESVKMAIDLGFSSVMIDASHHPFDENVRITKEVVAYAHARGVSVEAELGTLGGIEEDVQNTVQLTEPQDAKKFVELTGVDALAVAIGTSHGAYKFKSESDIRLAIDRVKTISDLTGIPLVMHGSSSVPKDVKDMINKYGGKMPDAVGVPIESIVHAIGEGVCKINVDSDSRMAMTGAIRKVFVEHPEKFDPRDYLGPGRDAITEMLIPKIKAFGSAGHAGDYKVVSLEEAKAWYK
Method in brief: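 Giardia FBPA (40 nM reagent) was preincubated 10 min at RT with compound (up to 57.5 uM final), then substrate plus GAPDH/TPI/NAD/arsenate coupling system with diaphorase/resazurin was added; resorufin fluorescence (525/598 nm) was read after 20 min.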
With `CC(C)c1ccc(C2CC(=O)N3CN(Cc4ccco4)CSC3=C2C#N)cc1` (configuration not stated) the Potency was inconclusive: 2.51 µM [inhibitor, full curve]. For `COC/C=C/C1=CC2=CC(=O)C(C)(OC(=O)c3cnc4ccccc4n3)C(=O)C2=CN1CCN1CCOCC1` (configuration not stated), the Potency was active: 15.8 µM. `Cc1ccc(C(OCC(O)CNC(C)c2ccccc2)c2ccccc2)cc1` (configuration not stated) was tested, and the Potency was inconclusive: 17.7 µM [inhibitor, partial curve]. `Cn1cccc1/C=C1/SC(=O)N(CC(=O)N2CCCC2)C1=O` was tested, and the “activity, negative = inhibition” value was inactive: -4.58%. With `Cc1ccc(NC(=S)N2CCC(c3ccc(C)cc3)C2)cc1` (configuration not stated) the Potency was active: 15.8 µM. In the case of `O=C(C1CCCO1)N1CCN(Cc2c(O)ccc3ccccc23)CC1` (configuration not stated), the Potency is reported as inconclusive: 14.1 µM [inhibitor, partial curve]. With `Oc1[nH]c2ccccc2c1N=NC(=S)N1CCOCC1` the Potency was active: 17.7 µM. For `C=CCn1c(C)cc(-c2csc(NC)n2)c1C`, the Potency was inconclusive: 14.1 µM [inhibitor, partial curve]. For `CC(=O)N1CCN(c2ccc(NCc3ccc(C)s3)cc2)CC1`, the Potency was inconclusive: 17.7 µM [inhibitor, partial curve]. With `CCN1CCN(C(=S)c2ccc(OC)cc2)CC1` the Potency was active: 4.46 µM. For `Cc1ccc(/C=N\NC(=O)C2CC(=O)N(c3ccccc3)C2)o1` (configuration not stated), the “activity, negative = inhibition” value was inactive: -3.63%. In the case of `COc1ccc(CNCc2cc(OC)ccc2OC)cc1`, the Potency is reported as inconclusive: 10 µM [inhibitor, partial curve]. In the case of `COc1c(C)cc(NC(=O)c2ccc3c(c2)NC(=O)CO3)cc1C`, the Potency is reported as inconclusive: 15.8 µM [inhibitor, partial curve]. For `Cc1cc(/C=N/Nc2nc(N)ncc2[N+](=O)[O-])c(C)n1-c1cccc(C(F)(F)F)c1`, the Potency was inconclusive: 15.8 µM [inhibitor, single point]. `CN(C)CCCNc1ncnc2scc(-c3ccccc3)c12` was tested, and the Potency was inconclusive: 14.1 µM [inhibitor, partial curve]. `COC(=O)CCCC1=CC2=CC(=O)C(C)(OC(=O)C3CCCC3)C(=O)C2=CO1` (configuration not stated) was tested, and the Potency was inconclusive: 22.3 µM [inhibitor, partial curve]. For `Nc1ccc2c(c1)OC1(CCCCC1)O2`, the Potency was inconclusive: 14.1 µM [inhibitor, partial curve]. In the case of `COC(=O)c1ccccc1NS(=O)(=O)c1ccc(O)c(C(=O)O)c1`, the Potency is reported as inconclusive: 17.7 µM [activator, partial curve]. For `Cc1ccnc(NS(=O)(=O)c2ccc(NC(=O)c3ccc(S(=O)(=O)N4CC(C)OC(C)C4)cc3)cc2)n1` (configuration not stated), the “activity, negative = inhibition” value was inactive: 0.308%. `COc1cc(Br)c(-c2sc(Nc3ccccc3)n[n+]2-c2ccccc2)cc1OC` was tested, and the Potency was inconclusive: 15.8 µM [inhibitor, partial curve]. With `OC1=C(O)c2nc3cc(F)ccc3nc21` the Potency was inconclusive: 15.8 µM [inhibitor, single point]. In the case of `CC(N)Cc1c[nH]c2ccc(O)cc12` (configuration not stated), the Potency is reported as active: 3.97 µM. In the case of `CCOc1ccc(NC(=O)C(=O)NCCN2CCN(S(=O)(=O)c3ccc(C)cc3)CC2)cc1`, the activity, negative = inhibition is reported as inconclusive: 41.8% [activator]. In the case of `CC(/C=N/NC(=O)c1cc(-c2ccncc2)nc2ccccc12)=C\c1ccco1`, the Potency is reported as inconclusive: 7.08 µM [inhibitor, partial curve]. For `O=C(Oc1ccc(C(=S)N2CCOCC2)cc1)c1ccc([N+](=O)[O-])cc1[N+](=O)[O-]`, the “activity, negative = inhibition” value was inactive: -6.47%. In the case of `Cc1cc(C(=O)Nc2ccc(Nc3ccccc3)cc2)ccc1[N+](=O)[O-]`, the “activity, negative = inhibition” value is reported as inactive: -15.8%. `COC(=O)C1=C(O)/C(=C\c2ccc(O)c(OC)c2)N=C1C` was tested, and the Potency was inconclusive: 15.8 µM [inhibitor, partial curve]. For `CCCCC1=CC2=C(c3ccco3)C(=O)C(C)(OC(=O)c3ccc(OC)cc3)C(=O)C2=CN1Cc1ccccc1` (configuration not stated), the Potency was inconclusive: 7.06 µM [inhibitor, partial curve]. With `COc1cc(CN2CCCN(C)CC2)cc([N+](=O)[O-])c1O` the Potency was inconclusive: 17.8 µM [inhibitor, single point]. For `O=C(Nc1ccc2ccccc2n1)Nc1cccs1`, the “activity, negative = inhibition” value was inactive: 7.4%. In the case of `COc1cccc(-n2nnnc2SCC(=O)Nc2ccccc2OC)c1`, the “activity, negative = inhibition” value is reported as inactive: -3.85%. `CCC(CC)c1nnc(NC(=O)c2ccc3ccccc3n2)s1` was tested, and the “activity, negative = inhibition” value was inactive: -3.74%. With `Cc1ccc(O)c(Nc2nc(-c3ccccc3)nc3ccccc23)c1` the Potency was inconclusive: 28.2 µM [inhibitor, partial curve]. For `O=C(Cn1cc([N+](=O)[O-])nc1[N+](=O)[O-])N1CCN(c2ccccc2)CC1`, the Potency was inconclusive: 25.1 µM [inhibitor, partial curve]. In the case of `O=C(c1cccc(NC2=NC3CS(=O)(=O)CC3S2)c1)N1CCN(c2cccc(Cl)c2)CC1` (configuration not stated), the “activity, negative = inhibition” value is reported as inactive: -13.3%. For `O=C(Nc1nnc(C2CC2)o1)c1ccc(S(=O)(=O)N2CCCc3ccccc32)cc1`, the Potency was inconclusive: 17.7 µM [activator, partial curve]. For `Cc1cccc2c3nc4ccccc4nc3n(C)c12`, the “activity, negative = inhibition” value was inactive: -2.55%. In the case of `COc1ccc(Nc2nnc(SCc3cc(=O)n4ccsc4n3)s2)cc1`, the Potency is reported as inconclusive: 15.8 µM [inhibitor, partial curve]. In the case of `Nc1cc(-c2ccco2)no1`, the Potency is reported as inconclusive: 15.8 µM [inhibitor, single point]. With `CCOC(=O)CN1NC2(CCC(C(C)(C)C)CC2)NC1=S` (configuration not stated) the Potency was inconclusive: 25.1 µM [inhibitor, single point]. In the case of `Cc1ccc(S(=O)(=O)N(C)C)cc1NC(=O)Cn1c(CN2CCOCC2)nc2ccccc2c1=O`, the “activity, negative = inhibition” value is reported as inactive: 4.65%. `N#Cc1c2ccc(OCC(N)=O)cc2n2ccccc12` was tested, and the Potency was inconclusive: 1.41 µM [inhibitor, full curve]. `CS(=O)(=O)c1ccc(S(=O)CC(=O)OCc2ccccc2)c([N+](=O)[O-])c1` (configuration not stated) was tested, and the Potency was inconclusive: 9.98 µM [inhibitor, partial curve]. For `Cc1ccc2c(c1)c1c3n2CCN(C(=O)C2CC2)C3CCC1` (configuration not stated), the Potency was inconclusive: 15.8 µM [inhibitor, partial curve]. In the case of `COc1ccc(CCNC(=O)c2ccccc2)cc1`, the “activity, negative = inhibition” value is reported as inactive: -1.15%. In the case of `COc1ccc(CCNC(=O)c2cccs2)cc1`, the “activity, negative = inhibition” value is reported as inactive: -2.77%. `Nc1c(C(=O)Nc2ccccc2)sc2nc(-c3cccnc3)ccc12` was tested, and the Potency was inconclusive: 9.98 µM [inhibitor, partial curve].
